The results in this text go back to PubChem BioAssay AID1645882 (National Center for Advancing Translational Sciences (NCATS), 2021).

Molecules are shown by their SMILES. Among all 16,000 compounds or so, about 120 (0.75%) were called active. Inconclusive results (about 4%) are left out. The call rests on the fitted dose curve; in most records, active means well fitted inhibition curve with a large enough effect; inconclusive means small, poorly fitted or top-dose-only effect; inactive means no such curve, though single readings can be large or run the other way. The list shows a part of the results.

Chain of UniProt O95398 (O95398 whole entry, looked up): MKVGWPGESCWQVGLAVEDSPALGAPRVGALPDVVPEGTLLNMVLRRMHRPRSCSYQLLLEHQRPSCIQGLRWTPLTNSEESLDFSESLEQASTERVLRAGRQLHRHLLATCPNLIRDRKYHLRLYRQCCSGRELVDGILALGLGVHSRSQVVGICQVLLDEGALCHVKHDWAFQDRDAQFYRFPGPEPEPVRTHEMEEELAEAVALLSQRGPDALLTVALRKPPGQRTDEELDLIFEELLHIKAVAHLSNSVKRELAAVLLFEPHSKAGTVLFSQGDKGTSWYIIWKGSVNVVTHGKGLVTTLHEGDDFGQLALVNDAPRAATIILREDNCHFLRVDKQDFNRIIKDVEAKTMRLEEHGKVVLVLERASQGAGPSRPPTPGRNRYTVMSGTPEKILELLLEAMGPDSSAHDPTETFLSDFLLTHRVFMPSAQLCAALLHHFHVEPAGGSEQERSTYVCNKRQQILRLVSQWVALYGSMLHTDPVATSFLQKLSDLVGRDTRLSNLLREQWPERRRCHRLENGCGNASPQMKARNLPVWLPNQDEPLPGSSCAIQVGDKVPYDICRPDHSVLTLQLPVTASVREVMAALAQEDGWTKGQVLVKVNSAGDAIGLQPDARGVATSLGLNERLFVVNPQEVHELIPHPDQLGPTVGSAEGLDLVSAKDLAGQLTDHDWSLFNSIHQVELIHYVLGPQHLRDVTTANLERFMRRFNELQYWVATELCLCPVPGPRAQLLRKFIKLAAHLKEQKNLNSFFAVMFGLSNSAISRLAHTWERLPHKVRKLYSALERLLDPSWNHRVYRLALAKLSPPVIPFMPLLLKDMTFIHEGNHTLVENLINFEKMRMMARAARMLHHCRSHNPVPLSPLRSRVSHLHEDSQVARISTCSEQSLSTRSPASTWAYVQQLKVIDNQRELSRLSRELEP

This assay concerns the target Rap guanine nucleotide exchange factor 3 (Homo sapiens) (UniProt O95398). Description: Validation qHTS for antagonist of cAMP-regulated guanine nucleotide exchange factor 3 (EPAC1).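 Further: plate controls were DMSO for no effect and ATA control for full effect; nearly all actives have a fitted effect of over 75% in size.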 As to conditions: EPAC1 Rap1B-BODIPY-GDP exchange, fluorescence; series mostly up to 150 µM; activity change, negative = inhibition: at the top concentration. The gist of the method:
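EPAC1 (100 nM) mixed with 250 nM RAP1B-BODIPY-GDP and 50 uM GDP; compounds in concentration series, 5 min at room temperature. Fluorescence (ex 480/em 540 nm) read every 5 min for 30 min; normalized to ATA control and DMSO.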
For orientation: Quantitative high-throughput screening tests each substance at several concentrations.
In the case of `Cc1noc(C)c1-c1ccc2ncnc(NCCN3CCOCC3)c2c1`, the “activity change, negative = inhibition” value was inactive: 2.89%. The same measure for `Cn1ccnc1`: inactive: -6.7% [at 75.8 µM]; for `Cc1cccc(C)c1NC(=O)CN(CC(=O)O)CC(=O)O`: inactive: 9.1%. The same measure for `CN1CCN(c2ncc3nc(-c4cn(C)c5ccccc45)c(=O)n(C[C@H]4CCCO4)c3n2)CC1`: inactive: 20.7%; for `Cc1cnc(CNc2ncnc3ccc(-c4ccccc4C)cc23)cn1`: inactive: 2.89%; for `CC1(c2ccccc2)OC(C(=O)O)=CC1=O` (stereo unspecified): inactive: -21.9%. As for `N#Cc1ccc[n+](CC(=O)c2ccc(F)cc2)c1`, the “activity change, negative = inhibition” value is inactive: 21.9%. To `CC(NC(=O)c1cc(F)ccc1F)c1nnc2n1CCN(Cc1ccc(-c3ccccc3)cc1)CC2` (stereo unspecified) belongs inactive: -22.5%.

Consider `COc1cc(C(=O)OC2CC[C@]3(C)C4CCC5[C@]6(O)CC(O)[C@]7(O)C(CN8CC(C)CCC8[C@]7(C)O)[C@]6(O)C[C@@]53O[C@]24O)cc(OC)c1OC` (stereo partly specified), for which the “activity change, negative = inhibition” value is inactive: 18.3%. The same measure for `Cc1cc(O)c(C(C)C)cc1Cl`: inactive: 17.2%; for `COc1cc(N(C)C)c(OC)cc1C=O`: inactive: -23.4%; for `C[C@H](O)CN(C)C`: inactive: 18.8%.

With `O=C(c1cccc(F)c1)N1CCC2(CC1)CN(C(c1ccccc1)c1ccccc1)C2`, the “activity change, negative = inhibition” value was inactive: -1.98%. To `N[C@H](C(=O)O)[C@@H]1CC(Cl)=NO1` belongs inactive: 20.4%; to `Cc1ncoc1C(=O)NCc1nc(-c2cccc(NC(=O)c3ccccn3)c2)oc1C`, inactive: 1.99%. `O=C(C[C@H]1C(=O)N(CCc2ccccc2)C[C@@H]1Cc1ccccc1)Nc1ccccc1`: the “activity change, negative = inhibition” value is inactive: -5.93%. To `COc1c(C(C)C)oc2cc3oc(=O)ccc3cc12` belongs inactive: 10.3%. To `Cc1noc(C)c1-c1nccc(-n2ccnc2)n1` belongs inactive: 29.1%. The same measure for `c1ccc2c(c1)sc[n+]2CCC1CCCCC1`: inactive: 6.15%.

`COc1ccc(-c2nc3cnc(N4CCOCC4)nc3n(Cc3cccc(OC)c3)c2=O)cc1`: the “activity change, negative = inhibition” value is inactive: 7.77%. For the molecule `CCCCNc1cc(C(=O)O)cc(S(N)(=O)=O)c1Oc1ccccc1`, the activity change, negative = inhibition entry is “inactive”. The same measure for `CN(CCO)C(=O)c1cn(C2CCCN(Cc3ccc4ccccc4c3)C2)nn1` (stereo unspecified): inactive: 13.8%; for `C[C@H](Cn1cnc2c(N)ncnc21)OCP(=O)(O)O`: inactive: 14%; for `CNC(=O)c1c(I)c(C(=O)NCC(=O)Nc2c(I)c(C(=O)O)c(I)c(C(=O)NCCO)c2I)c(I)c(N(C)C(C)=O)c1I`: inactive: -2.45%. Turning to `O=S1(=O)CCOC[C@H](c2ccccc2)N1Cc1ccc(Cl)c(Cl)c1`, the “activity change, negative = inhibition” value is inactive: -14.9%. Take `CN1CCN(c2ncc3ncc(=O)n(CCc4ccccc4)c3n2)CC1`: the “activity change, negative = inhibition” value was inactive: 11%. To `CC(CN1CC(=O)NC(=O)C1)N1CC(=O)NC(=O)C1` (stereo unspecified) belongs inactive: -14.3%.

For `O=c1c(O)c(-c2ccc(O)cc2)oc2ccccc12`, the “activity change, negative = inhibition” value is inactive: 33.7%.

Take `Clc1ccccc1-c1ccc2ncnc(N3CCNCC3)c2c1`: the “activity change, negative = inhibition” value was inactive: 8.49%.

In the case of `CCOC(=O)[C@H](CCc1ccccc1)N[C@@H](C)C(=O)N(CC(=O)O)C1Cc2ccccc2C1`, the “activity change, negative = inhibition” value was inactive: 3.39%. Take `Cc1noc(C)c1C(=O)N1CCC2(CCCN(Cc3ccc(C#N)cc3)C2)CC1`: the “activity change, negative = inhibition” value is inactive: 10.4%. To `O=C1O[C@@H]2[C@@H](O)[C@H](O)O[C@@H]2[C@H]1O` belongs inactive: -3.74%; to `COc1cc(CN2CCOc3ccc(CN4CCC(O)(c5cccnc5)CC4)cc3C2)ccc1F`, inactive: 8.96%; to `CCN(CC)c1ncnc2c1ncn2[C@@H]1O[C@@H](COP(=O)(O)OP(=O)(O)C(Br)(Br)P(=O)(O)O)[C@H](O)[C@H]1O`, inactive: -0.274%. The same measure for `O=C1CCN(Cc2ccccc2)S(=O)(=O)c2ccc(C(F)(F)F)cc21`: inactive: 0.214%.

As for `COc1cc(-c2coc3cc(O[C@H]4OC(CO)C(O)C(O)C4O)c(OC)c(O)c3c2=O)cc(O)c1OC` (stereo partly specified), the “activity change, negative = inhibition” value was inactive: 9.79%. The same measure for `O=c1c(-c2ccccc2)nc2cnc(N3CCOCC3)nc2n1-c1ccccc1`: inactive: 7.8%. The same measure for `O=c1ccn([C@@H]2O[C@H](CO)[C@@H](O)[C@H]2O)c(=O)[nH]1`: inactive: 17.3%. To `COc1ccc2[nH]c(-c3ccccc3)c(CCNC(C)=O)c2c1` belongs “inactive”; to `COc1ccccc1C1CN(CCNC(=O)c2cnsn2)Cc2ccccc2O1` (stereo unspecified), inactive: -10.5%; to `CCOC(=O)C1=CC2(CC)CCCN3CCc4c(n1c1ccccc41)C32` (stereo unspecified), inactive: 9.86% [at 201 µM]. Regarding `Cc1cc(-c2ccnc(-n3ncc(C(=O)N(C)Cc4nccs4)c3C)n2)c(C)s1`, the “activity change, negative = inhibition” value was inactive: 17.5%. `CC(C)(C)c1ccc(C(=O)CCCN2CCC(OC(c3ccccc3)c3ccccc3)CC2)cc1`: the activity change, negative = inhibition entry is “inactive”. The same measure for `COCC(=O)N1CCC2(CCCN(C(=O)Nc3cccc(F)c3)C2)CC1`: inactive: 0.21%. To `CCCCCC(O)c1cccc(OCc2ccc3ccccc3n2)c1` (stereo unspecified) belongs “inactive”; to `C/C1=C/CC(C)(C)/C=C/C/C(C)=C/CC1`, inactive: 11.7%.

On to `COc1cccc(-c2coc3c(C)c4oc(=O)c(CCC(=O)O)c(C)c4cc23)c1`, for which the “activity change, negative = inhibition” value is inactive: 7.93%. Consider `CCCCC/C=C\C/C=C\CCCCCCCCCC(=O)O`, for which the activity change, negative = inhibition was inactive: 0.107% [at 15.3 µM]. To `NC(Cc1ccccc1)C(=O)O` (stereo unspecified) belongs inactive: 17.1%; to `CNC(=O)Oc1ccc2c(c1)[C@@]1(C)CCN(C)C1N2C` (stereo partly specified), “inactive”.

Turning to `Cc1cnc(CNc2nc(-c3ccccc3Cl)nc3ccccc23)cn1`, the “activity change, negative = inhibition” value is inactive: -12.7%.
